Data: the supplement of paper PMC8728848
The list shows a part of the results.

Legend:
Test in all cases: glycan array binding signal (z-score within array); higher = stronger binding
Details in all cases: glycan notation: IUPAC condensed, linker removed
[1] = target: Fuc(a1-3)GlcNAc
Outline: (§1)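 Glycan array data were curated from 3228 arrays in the Consortium for Functional Glycomics database and kept only where the protein sequence was available. Glycan names were converted to IUPAC-condensed notation, and columns mapping to the same glycan were averaged. The binding signal is a within-array Z-score, averaged across arrays of the same protein sequence at different concentrations or buffers and across linkers. Negative Z-scores can be read as non-binding.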

[2] = target: Fuc(a1-3)[Gal(b1-4)]Glc6S
Outline: as §1

[3] = target: Fuc(a1-3)[Gal(b1-4)]GlcNAc
Outline: as §1

[4] = target: Fuc(a1-3)[Gal(b1-4)]GlcNAc(b1-2)Man
Outline: as §1

[5] = target: Fuc(a1-3)[Gal(b1-4)]GlcNAc(b1-2)Man(a1-3)[Fuc(a1-3)[Gal(b1-4)]GlcNAc(b1-2)Man(a1-6)]Man(b1-4)GlcNAc(b1-4)GlcNAc
Outline: as §1

[6] = target: Fuc(a1-3)[Gal(b1-4)]GlcNAc(b1-2)Man(a1-3)[Fuc(a1-3)[Gal(b1-4)]GlcNAc(b1-2)Man(a1-6)]Man(b1-4)GlcNAc(b1-4)[Fuc(a1-6)]GlcNAc
Outline: as §1

[7] = target: Fuc(a1-3)[Gal(b1-4)]GlcNAc(b1-3)Gal(b1-3)[Fuc(a1-4)]GlcNAc
Outline: as §1

[8] = target: Fuc(a1-3)[Gal(b1-4)]GlcNAc(b1-3)Gal(b1-4)[Fuc(a1-3)]GlcNAc
Outline: as §1

[9] = target: Fuc(a1-3)[Gal(b1-4)]GlcNAc(b1-3)Gal(b1-4)[Fuc(a1-3)]GlcNAc(b1-3)Gal(b1-4)[Fuc(a1-3)]GlcNAc
Outline: as §1

[10] = target: Fuc(a1-3)[Gal(b1-4)]GlcNAc(b1-3)GalNAc
Outline: as §1

[11] = target: Fuc(a1-3)[Gal(b1-4)]GlcNAc(b1-6)GalNAc
Outline: as §1

[12] = target: Fuc(a1-3)[Gal(b1-4)]GlcNAc(b1-6)[Gal(b1-3)GlcNAc(b1-3)]Gal(b1-4)Glc
Outline: as §1

[13] = target: Fuc(a1-3)[Gal(b1-4)]GlcNAc6S
Outline: as §1

[14] = target: Fuc(a1-3)[Gal3S(b1-4)]Glc
Outline: as §1

[15] = target: Fuc(a1-3)[Gal3S(b1-4)]GlcNAc
Outline: as §1

[16] = target: Fuc(a1-3)[Gal3S(b1-4)]GlcNAc6S
Outline: as §1

[17] = target: Fuc(a1-3)[GalNAc(b1-4)]GlcNAc
Outline: as §1

[18] = target: Fuc(a1-3)[GalNAc(b1-4)]GlcNAc6S
Outline: as §1

[19] = target: Fuc(a1-4)GlcNAc
Outline: as §1

[20] = target: Fuc(b1-3)GlcNAc
Outline: as §1

[21] = target: Gal(a1-2)Gal
Outline: as §1

[22] = target: Gal(a1-3)Gal
Outline: as §1

[23] = target: Gal(a1-3)Gal(b1-3)GlcNAc
Outline: as §1

[24] = target: Gal(a1-3)Gal(b1-3)GlcNAc(b1-2)Man
Outline: as §1

[25] = target: Gal(a1-3)Gal(b1-3)GlcNAc(b1-2)Man(a1-3)[Gal(a1-3)Gal(b1-3)GlcNAc(b1-2)Man(a1-6)]Man(b1-4)GlcNAc(b1-4)GlcNAc
Outline: as §1

[26] = target: Gal(a1-3)Gal(b1-3)GlcNAc(b1-3)GalNAc
Outline: as §1

[27] = target: Gal(a1-3)Gal(b1-3)GlcNAc(b1-6)GalNAc
Outline: as §1

[28] = target: Gal(a1-3)Gal(b1-3)[Fuc(a1-4)]GlcNAc(b1-2)Man(a1-3)[Gal(a1-3)Gal(b1-3)[Fuc(a1-4)]GlcNAc(b1-2)Man(a1-6)]Man(b1-4)GlcNAc(b1-4)GlcNAc
Outline: as §1

[29] = target: Gal(a1-3)Gal(b1-4)Glc
Outline: as §1

[30] = target: Gal(a1-3)Gal(b1-4)GlcNAc
Outline: as §1

[31] = target: Gal(a1-3)Gal(b1-4)GlcNAc(b1-2)Man
Outline: as §1

[32] = target: Gal(a1-3)Gal(b1-4)GlcNAc(b1-2)Man(a1-3)[Gal(a1-3)Gal(b1-4)GlcNAc(b1-2)Man(a1-6)]Man(b1-4)GlcNAc(b1-4)GlcNAc
Outline: as §1

[33] = target: Gal(a1-3)Gal(b1-4)GlcNAc(b1-3)GalNAc
Outline: as §1

[34] = target: Gal(a1-3)Gal(b1-4)GlcNAc(b1-6)GalNAc
Outline: as §1

[35] = target: Gal(a1-3)Gal(b1-4)[Fuc(a1-3)]GlcNAc
Outline: as §1

[36] = target: Gal(a1-3)Gal(b1-4)[Fuc(a1-3)]GlcNAc(b1-2)Man(a1-3)[Gal(a1-3)Gal(b1-4)[Fuc(a1-3)]GlcNAc(b1-2)Man(a1-6)]Man(b1-4)GlcNAc(b1-4)GlcNAc
Outline: as §1

[37] = target: Gal(a1-3)GalNAc
Outline: as §1

[38] = target: Gal(a1-3)[Gal(a1-4)]Gal(b1-4)GlcNAc
Outline: as §1

[39] = target: Gal(a1-4)Gal(b1-3)GlcNAc(b1-2)Man(a1-3)[Gal(a1-4)Gal(b1-3)GlcNAc(b1-2)Man(a1-6)]Man(b1-4)GlcNAc(b1-4)GlcNAc
Outline: as §1

[40] = target: Gal(a1-4)Gal(b1-4)Glc
Outline: as §1

[41] = target: Gal(a1-4)Gal(b1-4)GlcNAc
Outline: as §1

[42] = target: Gal(a1-4)Gal(b1-4)GlcNAc(b1-2)Man(a1-3)[Gal(a1-4)Gal(b1-4)GlcNAc(b1-2)Man(a1-6)]Man(b1-4)GlcNAc(b1-4)GlcNAc
Outline: as §1

[43] = target: Gal(a1-4)Gal(b1-4)GlcNAc(b1-3)Gal(b1-4)Glc
Outline: as §1

[44] = target: Gal(a1-4)GlcNAc
Outline: as §1

[45] = target: Gal(a1-6)Glc
Outline: as §1

B1: RBMC1 (Vibrio cholerae) (protein)
chain: QQSQRVVTADNLMYLRSGFAIDAIGTTVNNLVGGPVQGTNGGVLRAPIALDQLQSVEVTSGLYNWGGYHIVAIKFTMKDGSSVLLGSTHYASNKKVETYTVPQGKRIKQINVWTGGWLVEGFQFVY
glycan array binding signal (z-score) [1]: -0.338 | glycan array binding signal (z-score) [2]: -0.164 | glycan array binding signal (z-score) [3]: -0.244 | glycan array binding signal (z-score) [4]: -0.4 | glycan array binding signal (z-score) [5]: 1.67 | glycan array binding signal (z-score) [6]: 0.197 | glycan array binding signal (z-score) [7]: -0.378 | glycan array binding signal (z-score) [8]: -0.364 | glycan array binding signal (z-score) [9]: -0.383 | glycan array binding signal (z-score) [10]: -0.345 | glycan array binding signal (z-score) [11]: -0.354 | glycan array binding signal (z-score) [12]: -0.359 | glycan array binding signal (z-score) [13]: 0.277 | glycan array binding signal (z-score) [14]: -0.234 | glycan array binding signal (z-score) [15]: -0.201 | glycan array binding signal (z-score) [16]: -0.233 | glycan array binding signal (z-score) [17]: -0.35 | glycan array binding signal (z-score) [18]: -0.254 | glycan array binding signal (z-score) [19]: -0.041 | glycan array binding signal (z-score) [20]: -0.422 | glycan array binding signal (z-score) [21]: -0.395 | glycan array binding signal (z-score) [22]: -0.302 | glycan array binding signal (z-score) [23]: -0.424 | glycan array binding signal (z-score) [24]: -0.195 | glycan array binding signal (z-score) [25]: 0.94 | glycan array binding signal (z-score) [26]: -0.245 | glycan array binding signal (z-score) [27]: -0.341 | glycan array binding signal (z-score) [28]: 0.377 | glycan array binding signal (z-score) [29]: -0.224 | glycan array binding signal (z-score) [30]: -0.38 | glycan array binding signal (z-score) [31]: -0.326 | glycan array binding signal (z-score) [32]: 2.77 | glycan array binding signal (z-score) [33]: -0.282 | glycan array binding signal (z-score) [34]: -0.399 | glycan array binding signal (z-score) [35]: -0.359 | glycan array binding signal (z-score) [36]: 0.704 | glycan array binding signal (z-score) [37]: -0.237 | glycan array binding signal (z-score) [38]: -0.407 | glycan array binding signal (z-score) [39]: 1.41 | glycan array binding signal (z-score) [40]: -0.141 | glycan array binding signal (z-score) [41]: -0.178 | glycan array binding signal (z-score) [42]: 3.8 | glycan array binding signal (z-score) [43]: -0.156 | glycan array binding signal (z-score) [44]: -0.353 | glycan array binding signal (z-score) [45]: -0.397
